Experimental data published in publication PMC3398040.
Results are given in words; binding and its absence hold for the method and conditions named. Binding seen in cells or lysates may run through a third protein. Some binding calls cover weakened binding; strength is not graded here. Where a sequence is shown, tags or fusion partners need not be part of it.

Tests used:
[1] = molecular target: T1, GST-tagged Rpn1 (^GSTRpn1) (yeast) (UniProt P38764); assay: pull-down; GST-Rpn1, GST-Rpn10 or GST on GSH beads incubated with yeast extract with myc-Cdc53 and GFP-Ho mixed with bacterial lysate with HIS-Ufo1 (Figure 3B); only the target purified
T1 sequence: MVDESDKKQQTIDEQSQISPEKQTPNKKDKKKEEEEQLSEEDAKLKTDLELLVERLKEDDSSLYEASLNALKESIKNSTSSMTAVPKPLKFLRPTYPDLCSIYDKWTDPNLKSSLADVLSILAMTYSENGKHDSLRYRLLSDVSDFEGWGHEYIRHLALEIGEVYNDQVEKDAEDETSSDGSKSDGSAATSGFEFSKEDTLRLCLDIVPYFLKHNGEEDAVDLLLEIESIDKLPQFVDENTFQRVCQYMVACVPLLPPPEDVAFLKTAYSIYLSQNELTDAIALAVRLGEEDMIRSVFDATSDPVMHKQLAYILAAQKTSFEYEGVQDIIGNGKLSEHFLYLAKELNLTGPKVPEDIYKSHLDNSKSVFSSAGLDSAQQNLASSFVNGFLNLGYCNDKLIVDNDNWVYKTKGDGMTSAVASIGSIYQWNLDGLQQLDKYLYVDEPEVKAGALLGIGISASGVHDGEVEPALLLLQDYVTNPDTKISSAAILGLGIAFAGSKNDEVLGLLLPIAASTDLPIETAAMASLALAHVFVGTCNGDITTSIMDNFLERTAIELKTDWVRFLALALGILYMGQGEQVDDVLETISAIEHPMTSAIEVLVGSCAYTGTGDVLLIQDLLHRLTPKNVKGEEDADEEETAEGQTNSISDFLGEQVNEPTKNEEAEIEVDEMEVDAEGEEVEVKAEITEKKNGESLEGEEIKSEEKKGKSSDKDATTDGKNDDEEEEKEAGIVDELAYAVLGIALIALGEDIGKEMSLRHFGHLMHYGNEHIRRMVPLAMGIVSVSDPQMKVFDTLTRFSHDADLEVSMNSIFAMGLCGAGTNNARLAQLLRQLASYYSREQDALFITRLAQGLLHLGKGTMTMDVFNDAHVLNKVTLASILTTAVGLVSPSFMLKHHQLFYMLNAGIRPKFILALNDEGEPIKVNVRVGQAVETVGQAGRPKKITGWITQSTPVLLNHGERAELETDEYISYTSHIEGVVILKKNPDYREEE

[2] = molecular target: T2, GST-tagged Rpn10 (^GSTRpn10) (yeast) (UniProt P38886); assay: as above
T2 sequence: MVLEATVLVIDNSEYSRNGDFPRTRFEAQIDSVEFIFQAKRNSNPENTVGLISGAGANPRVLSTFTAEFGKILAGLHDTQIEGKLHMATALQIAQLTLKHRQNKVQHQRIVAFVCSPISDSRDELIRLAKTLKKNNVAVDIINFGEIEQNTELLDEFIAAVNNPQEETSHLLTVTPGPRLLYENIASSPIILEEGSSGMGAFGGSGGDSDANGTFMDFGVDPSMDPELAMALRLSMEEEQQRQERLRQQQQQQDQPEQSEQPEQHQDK

[3] = molecular target: T3, myc-tagged Cdc53 (^mycCdc53) (S. cerevisiae) (UniProt Q12018); assay: co-IP; bacterial lysates with HIS-Rpn1 and GST-Ufo1 mixed with yeast extract with myc-Cdc53 and GFP-Ho; aliquots immunoprecipitated with anti-myc, anti-GFP, anti-GST or anti-HIS and Protein A beads (Figure 4, + Ho)
T3 sequence: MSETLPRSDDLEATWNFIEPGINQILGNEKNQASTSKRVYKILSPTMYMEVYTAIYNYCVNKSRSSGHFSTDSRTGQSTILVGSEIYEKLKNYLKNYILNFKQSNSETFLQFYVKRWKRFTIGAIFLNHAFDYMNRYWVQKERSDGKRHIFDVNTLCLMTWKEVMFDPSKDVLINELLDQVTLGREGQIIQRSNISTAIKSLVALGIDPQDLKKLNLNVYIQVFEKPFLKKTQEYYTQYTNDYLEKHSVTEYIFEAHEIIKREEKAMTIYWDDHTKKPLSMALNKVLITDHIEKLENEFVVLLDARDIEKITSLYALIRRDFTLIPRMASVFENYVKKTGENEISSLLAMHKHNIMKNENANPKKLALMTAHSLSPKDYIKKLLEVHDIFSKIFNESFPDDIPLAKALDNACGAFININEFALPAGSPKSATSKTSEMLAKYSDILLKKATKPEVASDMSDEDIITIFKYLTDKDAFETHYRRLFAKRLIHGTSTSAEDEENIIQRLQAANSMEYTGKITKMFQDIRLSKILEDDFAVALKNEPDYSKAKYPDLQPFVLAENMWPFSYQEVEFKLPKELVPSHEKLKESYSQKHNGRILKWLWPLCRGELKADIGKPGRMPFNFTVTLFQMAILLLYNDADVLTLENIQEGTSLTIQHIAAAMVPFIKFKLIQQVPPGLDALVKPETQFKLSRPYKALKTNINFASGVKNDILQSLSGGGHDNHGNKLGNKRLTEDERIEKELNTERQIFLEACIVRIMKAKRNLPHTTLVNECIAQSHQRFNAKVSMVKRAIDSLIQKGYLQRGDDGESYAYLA

[4] = molecular target: T4, HIS-tagged Rpn1 (^HISRpn1) (yeast) (UniProt P38764); assay: as above
T4 sequence: T1 sequence

Measured: binding

B1: GFP-tagged Ho endonuclease (^GFPHo) (enzyme, UniProt P09932 1-586)
chain: MLSENTTILMANGEIKDIANVTANSYVMCADGSAARVINVTQGYQKIYNIQQKTKHRAFEGEPGRLDPRRRTVYQRLALQCTAGHKLSVRVPTKPLLEKSGRNATKYKVRWRNLQQCQTLDGRIIIIPKNHHKTFPMTVEGEFAAKRFIEEMERSKGEYFNFDIEVRDLDYLDAQLRISSCIRFGPVLAGNGVLSKFLTGRSDLVTPAVKSMAWMLGLWLGDSTTKEPEISVDSLDPKLMESLRENAKIWGLYLTVCDDHVPLRAKHVRLHYGDGPDENRKTRNLRKNNPFWKAVTILKFKRDLDGEKQIPEFMYGEHIEVREAFLAGLIDSDGYVVKKGEGPESYKIAIQTVYSSIMDGIVHISRSLGMSATVTTRSAREEIIEGRKVQCQFTYDCNVAGGTTSQNVLSYCRSGHKTREVPPIIKREPVYFSFTDDFQGESTVYGLTIEGHKNFLLGNKIEVKSCRGCCVGEQLKISQKKNLKHCVACPRKGIKYFYKDWSGKNRVCARCYGRYKFSGHHCINCKYVPEAREVKKAKDKGEKLGITPEGLPVKGPECIKCGGILQFDAVRGPHKSCGNNAGARIC
modifications: ubiquitylated as produced in yeast (sites not given)
binds: all assays above
